The text below walks through data of publication PMC4336329 (PLoS ONE, 2015).

The whole screen tested about 310,000 compounds, of which about 14,000 (4.5%) showed an effect of 50% or more. Effects have a minus sign here. The list shows a part of the results.
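Also: peak tail current of the secondary pulse compared with the same well before compound.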

human ether-à-go-go-related gene (hERG) potassium channel, sequence (Q12809 whole entry, looked up): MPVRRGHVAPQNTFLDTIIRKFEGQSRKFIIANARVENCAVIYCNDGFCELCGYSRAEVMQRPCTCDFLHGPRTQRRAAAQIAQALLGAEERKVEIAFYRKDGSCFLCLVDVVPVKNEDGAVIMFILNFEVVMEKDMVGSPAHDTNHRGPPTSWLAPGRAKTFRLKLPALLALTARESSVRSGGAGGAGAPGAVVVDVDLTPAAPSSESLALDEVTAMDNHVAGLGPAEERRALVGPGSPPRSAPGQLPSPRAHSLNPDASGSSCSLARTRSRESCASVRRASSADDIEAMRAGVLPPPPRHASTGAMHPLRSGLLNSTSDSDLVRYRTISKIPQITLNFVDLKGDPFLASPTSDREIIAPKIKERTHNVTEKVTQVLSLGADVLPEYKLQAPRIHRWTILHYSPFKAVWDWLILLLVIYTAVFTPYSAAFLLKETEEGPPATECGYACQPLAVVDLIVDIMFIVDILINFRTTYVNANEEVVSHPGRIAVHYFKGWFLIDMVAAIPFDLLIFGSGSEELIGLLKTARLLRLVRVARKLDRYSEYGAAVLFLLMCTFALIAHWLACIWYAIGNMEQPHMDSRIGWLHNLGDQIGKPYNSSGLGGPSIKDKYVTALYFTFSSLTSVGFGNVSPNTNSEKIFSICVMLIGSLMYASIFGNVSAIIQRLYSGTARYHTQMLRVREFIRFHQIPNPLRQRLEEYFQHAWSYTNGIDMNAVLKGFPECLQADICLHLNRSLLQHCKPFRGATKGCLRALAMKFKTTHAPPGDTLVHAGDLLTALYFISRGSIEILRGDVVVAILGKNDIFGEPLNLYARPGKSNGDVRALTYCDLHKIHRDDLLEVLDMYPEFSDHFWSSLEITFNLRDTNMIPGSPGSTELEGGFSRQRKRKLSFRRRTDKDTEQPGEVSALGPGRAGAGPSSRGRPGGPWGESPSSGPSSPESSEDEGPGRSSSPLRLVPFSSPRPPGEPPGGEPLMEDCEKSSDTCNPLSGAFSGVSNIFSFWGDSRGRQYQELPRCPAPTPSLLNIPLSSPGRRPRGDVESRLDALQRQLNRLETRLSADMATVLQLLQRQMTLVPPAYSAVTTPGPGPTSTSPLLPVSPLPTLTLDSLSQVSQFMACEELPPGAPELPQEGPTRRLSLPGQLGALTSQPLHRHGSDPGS

This test addresses human ether-à-go-go-related gene (hERG) potassium channel (human, UniProt Q12809). Description: primary screen, population patch clamp on CHO cells stably expressing hERG.
As to `C=CCNc1sc(C(=O)c2ccc(C)cc2)c(N)c1C#N`, the “hERG current change (%, negative = inhibition) at 10uM” value is listed as 5.28%.
As to `Cc1ccc(CNC(=O)Cn2c(=O)oc3ccccc32)o1`, the “hERG current change (%, negative = inhibition) at 10uM” value is on record as -3.87%.
As to `O=C(COC(=O)Cn1cnc2ccccc21)Nc1cccc(S(=O)(=O)N2CCOCC2)c1`, the “hERG current change (%, negative = inhibition) at 10uM” value stood at 16%.
With `O=C(COC(=O)CC(c1ccccc1)c1ccccc1)Nc1cccc(F)c1`, the “hERG current change (%, negative = inhibition) at 10uM” value stood at 6.39%.
As to `Cc1cc(NC(=O)CCC(=O)N(CCC(C)C)C(C(=O)NC2CCCC2)c2ccccc2C)no1` (stereo not shown), the “hERG current change (%, negative = inhibition) at 10uM” value was -21.5%.
Regarding `C[C@]12CC[C@H]3[C@@H](CC[C@]4(O)C[C@@H](O)CC[C@]34C=O)[C@@]1(O)CC[C@@H]2C1=CC(=O)OC1`, the “hERG current change (%, negative = inhibition) at 10uM” value was determined as 14%.
With `CC1=CC(C)(C(Cl)Cl)C(C)=CC1=O` (stereo not shown), the “hERG current change (%, negative = inhibition) at 10uM” value is listed as 4.55%.
On to `CC1CCCCC1NS(=O)(=O)c1ccc(S(=O)(=O)N2CCN(CCC#N)CC2)cc1` (stereo not shown), for which the “hERG current change (%, negative = inhibition) at 10uM” value is -31.4%.
`CCS(=O)(=O)N1Cc2ccccc2CC1C(=O)N(C)Cc1ccc(OC)c(F)c1` (stereo not shown): the “hERG current change (%, negative = inhibition) at 10uM” value is listed as 5.07%.
In the case of `COC(=O)c1cn(C(=O)c2ccc(F)cc2)c2ccccc12`, the “hERG current change (%, negative = inhibition) at 10uM” value came out at 3.99%.
Consider `COc1ccc(Cc2nnc(NC(=O)CS(=O)(=O)c3ccc(C)cc3)s2)cc1OC`, for which the “hERG current change (%, negative = inhibition) at 10uM” value is listed as 4.16%.
Take `COCCNC(=O)c1sc2nc(-c3ccccc3)cn2c1C`: the “hERG current change (%, negative = inhibition) at 10uM” value is listed as -11.5%.
With `Cc1ccc2cc(CN(Cc3nnnn3C3CCCCC3)CC3CCCO3)c(=O)[nH]c2c1` (stereo not shown), the “hERG current change (%, negative = inhibition) at 10uM” value is -38.2%.
The value for `O=C(NC(=S)Nc1ccccc1[N+](=O)[O-])c1ccccc1` was 6.17%; that for `COc1ccc2cc3cc(C(=O)N4CC(C)CC(C)C4)oc3nc2c1` (stereo not shown) was -27.3%; that for `CCN1CCN(CCCNC(=O)C2CCCN(c3nc4c(C)cc(C)cc4s3)C2)CC1` (stereo not shown) was -26.2%.
Turning to `CCS(=O)(=O)c1ncc(Cl)c(C(=O)Nc2ccc(S(=O)(=O)N(C)c3ccccc3)cc2)n1`, the “hERG current change (%, negative = inhibition) at 10uM” value is listed as 15.5%.
Turning to `CCNc1cc(N2CCN(S(=O)(=O)c3ccc4c(c3)CCCC4)CC2)ccc1[N+](=O)[O-]`, the “hERG current change (%, negative = inhibition) at 10uM” value is -7.77%.
In the case of `CCOC(=O)CCNC(=O)N1CCCC(C(=O)c2cccc(Cl)c2)C1` (stereo not shown), the “hERG current change (%, negative = inhibition) at 10uM” value is listed as -39.1%.
Under `O=[N+]([O-])c1cc([N+](=O)[O-])c2cc3ccccc3nc2c1` stands 12.4%; under `O=C(CSC1=NCCS1)Nc1nc2c(s1)CCCC2`, -13%.
The value for `CSc1cccc(NC(=O)Cc2ccccc2[N+](=O)[O-])c1` was 8.4%; that for `COc1ccccc1/C=C1\SC(=S)N(CCC(=O)N2CCCCC2CCO)C1=O` (stereo not shown) was 16.7%.
Take `Cc1ccc2oc(-c3ccc(NC(=O)c4ccc5c(c4)OCO5)cc3)nc2c1`: the “hERG current change (%, negative = inhibition) at 10uM” value amounted to 10.9%.
On to `O=C(CCN1C(=O)c2cccnc2C1=O)NC1CCCCCC1`, for which the “hERG current change (%, negative = inhibition) at 10uM” value is 3.64%.
Under `CC(C)=C(NC(=O)c1ccccc1)C(=O)NCCCC(=O)O` stands 4.19%; under `CCOC(=O)c1ccc(COC(=O)CCc2nc(-c3ccccc3)c(-c3ccccc3)o2)cc1`, 1.13%; under `COc1ccc(C(CC(=O)O)NC(=O)Cc2ccccc2)cc1` (stereo not shown), 3.36%.
With `CCOC(=O)C1CCN(S(=O)(=O)c2cccc(-c3csc(C)n3)c2)CC1`, the “hERG current change (%, negative = inhibition) at 10uM” value is listed as -53.5%.
Regarding `Br.Cc1ccc(SCc2cn3c(C)csc3n2)cc1`, the “hERG current change (%, negative = inhibition) at 10uM” value was -14.1%.
For the molecule `COc1ccc(Br)cc1S(=O)(=O)N1CC(C)OC(C)C1` (stereo not shown), the “hERG current change (%, negative = inhibition) at 10uM” value is reported as -3.55%.
For `COc1ccc(C(=O)CCC(C)(C)[N+](=O)[O-])cc1`, the “hERG current change (%, negative = inhibition) at 10uM” value came out at 11.4%.
Turning to `CCCCN(c1nc2ccccc2nc1Cl)S(=O)(=O)c1ccc(C)cc1`, the “hERG current change (%, negative = inhibition) at 10uM” value was 19.5%.
Turning to `COc1ccccc1C(=O)NC1CCN(C(=O)Nc2ccc(F)cc2)CC1`, the “hERG current change (%, negative = inhibition) at 10uM” value amounted to 1.11%.
As for `COc1cccc(N=Cc2ccc(O)cc2O)c1`, the “hERG current change (%, negative = inhibition) at 10uM” value came out at 10.2%.
Under `Cc1c(NC(=O)CSc2nc(-c3ccco3)cc(C(F)(F)F)n2)c(=O)n(-c2ccccc2)n1C` stands -3.84%; under `O=C(CN1CCN(CCOCCO)CC1)N1c2ccccc2Sc2ccc(Cl)cc21`, -14.9%; under `CC(C)C(=O)c1cc2c(cc1NC(=O)c1cccs1)OCCO2`, 1.01%.
Turning to `N#CC1=C(N)NC(SCc2ccccc2)=C(C#N)C12CCCCC2`, the “hERG current change (%, negative = inhibition) at 10uM” value was -15.3%.
Regarding `O=c1[nH]c(=O)n(Cc2ccco2)c2c1C(C(F)(F)F)(C(F)(F)F)N=C(Cc1ccccc1)N2`, the “hERG current change (%, negative = inhibition) at 10uM” value is -2.7%.
The value for `CCOC(=O)C1CCCN(C(=O)/C(=C/c2ccco2)NC(=O)c2ccccc2)C1` (stereo not shown) was 15.1%; that for `COc1ccc(NC2=CC(=O)CC(c3ccccc3)C2)c(OC)c1` (stereo not shown) was -11.1%; that for `CCOC(=O)c1ccc(NC(=O)C(C)N2C(=O)c3ccccc3C2=O)cc1` (stereo not shown) was -11.5%.
As to `Nc1ncnc(Nc2ccc(F)c(Cl)c2)n1`, the “hERG current change (%, negative = inhibition) at 10uM” value stood at 11.3%.
In the case of `COc1cccc(CN(C)C(c2ccccc2)c2ccccc2)c1OC`, the “hERG current change (%, negative = inhibition) at 10uM” value was 17.5%.
Under `CCN(CC1COc2ccccc2O1)S(=O)(=O)c1ccc(C)cc1` (stereo not shown) stands -3.87%; under `CCOc1cc(Br)c(C(=O)O)cc1OC`, 0.12%.
The value for `CN(Cc1ccccc1)C(=O)CN1CCN(S(=O)(=O)c2ccc(Cl)c(Cl)c2)CC1` was -32.2%; that for `O=C(COc1ccc(S(=O)(=O)N2CCCC2)cc1Cl)Nc1ccc2c(c1)OCO2` was 7.83%.
`C/C=C(/C)C(=O)Nc1cccc(C2=NOC3(C2)C[C@@H](C(N)=O)N(C(=O)/C=C/CC)C3)c1` (stereo partly shown): the “hERG current change (%, negative = inhibition) at 10uM” value turned out to be 9.09%.
Under `Cc1sc2ncnc(N(C)CCc3ccccn3)c2c1C.O=C(O)C(=O)O` stands 21.5%; under `CCN(CC)C(=O)C(=O)c1cccn1-c1cccc(OC)c1C#N`, -8.33%.
`CNc1nc(C)c(C#N)c(-c2ccccc2)c1C(C)=O`: the “hERG current change (%, negative = inhibition) at 10uM” value was -7.81%.
Under `Cc1nc(Cl)c(N=Cc2cccc([N+](=O)[O-])c2)c(Cl)n1` stands 24.2%.
The value for `CC(C)CN(Cc1c(O)ccc2ccccc12)CC(C)C` was 15.1%.
